Our source for the binding signal values is PMC12136788.

Some of the results follow.

First the molecules themselves.
T1: UNK ZnF1-3 (human, UniProt Q9C0B0 31-174)
T1 sequence: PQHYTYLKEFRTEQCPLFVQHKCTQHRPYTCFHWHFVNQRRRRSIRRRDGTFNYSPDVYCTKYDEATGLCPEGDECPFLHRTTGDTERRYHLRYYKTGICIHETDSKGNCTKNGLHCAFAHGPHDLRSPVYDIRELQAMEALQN

B1: chr17:60770872:60770873:+_ENSG00000011028_ENST00000303375|hu_hu|hu_hu_hu_mus_True|68_108 (ssRNA)
RNA: GGGAGUUCUACAGUCCGACGAUCUCUCUUUUCUUUUAAAAAAAAAGACAAACAAUAAUAGCACAUUAUUUAAAAAAAGAACUACAAUAGAGGGUCCGCUUUGAGUUUUUGUUCACAUCGUCCUGCACUGGGACACGGGGACUGCAACAGAGGAUUGAGCAUCA
B2: chr2:50987981:50987982:-_ENSMUSG00000017144_ENSMUST00000017288|mus_mus|motif|central (ssRNA)
RNA: GGGAGUUCUACAGUCCGACGAUCGGUGGCGACGUGAAAAAUGUCUCUGACGCUGUUUUCUGACUGUAAAGCUGAGCAUUCGGUGUAAGUGGCUGCUCCGAUCUGCUUGGCCAUAUUUGCCCCCUGGUCAUAUGACACAGGAGUCAACAGAGGAUUGAGCAUCA
B3: 41625212_41641310_204_CDS_ENSG00000137804_ENST00000414849|human|control|control (ssRNA)
RNA: GGGAGUUCUACAGUCCGACGAUCAGUUUGACUUUCAUCCUGAUUCUCAUUUCCUUUUCUUGCCUCAUGUUUAAUGUAGCCUUUCAAGGCUUUUAACAACUUGGUUGCCCUCAGGUUGGCCCGGAGACCCAGACUCUUGGCUAACAACAGAGGAUUGAGCAUCA
B4: chr1:135029974:135029975:+_ENSMUSG00000046062_ENSMUST00000052529|mus_mus|FALSE|FALSE (ssRNA)
RNA: GGGAGUUCUACAGUCCGACGAUCCUGACGGCCUUUCCAAUUCUUCCCUGACGGUUGAAAAGGAGCCUUAAAAUUUAAAAGGUUGUAGGGGUCCUCAGAAUGACAGAAAGAGUUCCACAAUUUAAGAUUCUCUGCUUCAUCUGCCAACAGAGGAUUGAGCAUCA
B5: chr14:35505469:35505470:+_ENSMUSG00000041408_ENSMUST00000048263|mus_mus|FALSE|FALSE (ssRNA)
RNA: GGGAGUUCUACAGUCCGACGAUCCUGGAUGGUAACAUUACACACUGACAAGCAAGAUGGAUGUAAAACAGUGUAAUCUCUAGUCCGUCCAACUGUUCCUCGAAAACUGGUCCCACAACUUGCACUACCUUUCUUUGCCUGAUUCAACAGAGGAUUGAGCAUCA
B6: chr12:8716970:8716971:+_ENSMUSG00000020594_ENSMUST00000111122|mus_hu|FALSE|FALSE (ssRNA)
RNA: GGGAGUUCUACAGUCCGACGAUCUGGAGAAGCCUUGCCUUUUUGAUCUCCUUUCUCAGGUCCAUCUGUUUCAGCAUCUCUAGUGCCAAAAUUUCCCUUCCUAAAUCGAGAAUCCAAUUUAUCAGCAGGAGAAGAACUUAAUACCAACAGAGGAUUGAGCAUCA
B7: chr3:176767854:176767855:-_ENSG00000177565_ENST00000430069|hu_hu|hu_hu_hu_mus_False|48_68 (ssRNA)
RNA: GGGAGUUCUACAGUCCGACGAUCGACAUCCUUGUUACUGGGCACGUCCUGCCCUCCUUCCCGUAUGCAAUGUCUAAGCACGAGCUGUGUAGAGCCACUCGUGCUGUUCUCACUGAGGUUCCAGAUUCUUGCCGUGGAGUCUCCCAACAGAGGAUUGAGCAUCA
B8: 137520329_137520579_1933_CDS_ENSG00000112984_ENST00000394894|human|control|control (ssRNA)
RNA: GGGAGUUCUACAGUCCGACGAUCUCGGAGAUGCAUCUCCAGCUGUAGCUUUUCCUGUCGUUCCUUCAAAAGCAGUGUCUUCAUGGCUUCCACAACUUGUAGGAGCUCCUCUUUGCCAUACAUGGAGAUGUCAGCUUCAUUUUCCAACAGAGGAUUGAGCAUCA
B9: chr22:32879901:32879902:+_ENSG00000100225_ENST00000397426|hu_mus|hu_hu_hu_mus_False|8_78 (ssRNA)
RNA: GGGAGUUCUACAGUCCGACGAUCCUCUUCCAUACUCAUGGCAUCCUGAAUUGACUCAGCUUCAAAAUUUUGACUAGGCCCUUCCAUACUGUCAUCAGUCCAGGCAUCAAAUGGGGUGGCCUGUCCUUGGAAUGAAUCAGUCCCCAACAGAGGAUUGAGCAUCA
B10: chr14:62203736:62203737:+_ENSG00000100644_ENST00000337138|hu_mus|FALSE|FALSE (ssRNA)
RNA: GGGAGUUCUACAGUCCGACGAUCGCCGGCAGCUGGAGCCAGCAGAGUGAGAGCAUCAGGCUCCUUCUUAAGCUUAUCAAAAAGGCAGCUUGUAUCCUCUGAUUCAACUUUGGUGAACAGCUGAGUCAUCUUCAUAUCUGAAGACAACAGAGGAUUGAGCAUCA
B11: chr7:44244176:44244177:+_ENSG00000106636_ENST00000223369|hu_mus|hu_hu_hu_mus_False|78_108 (ssRNA)
RNA: GGGAGUUCUACAGUCCGACGAUCACUAUCAUUCCGGACGUAGACAUGGCAAAGAUAGUCUUGUUCUUUGACAGAAGCUCUGCUGCCUUUCCCCGAGCGUUCCACAAUCAGUUGACUUGUAAAGGUCAUGAAUUCCUGCACACUCAACAGAGGAUUGAGCAUCA
B12: chr5:31101443:31101444:+_ENSMUSG00000029168_ENSMUST00000114729|mus_hu|FALSE|FALSE (ssRNA)
RNA: GGGAGUUCUACAGUCCGACGAUCGUGGCUUCUGGGUCAGUAUCAGAAAAGCCCUCAUCACGACAUCGGCUUGACAGAGACCUACUGUGGACUCCUAGCACUACACACACGCACGCACACGCACACACAGUAGCACAAUUUUCUCAACAGAGGAUUGAGCAUCA
B13: chr11:100882373:100882374:+_ENSMUSG00000019302_ENSMUST00000044721|mus_mus|mus_mus_mus_hu_True|68_68 (ssRNA)
RNA: GGGAGUUCUACAGUCCGACGAUCUUCCUGGUUUGUGUUGAUUUCCUUCAGUUCAUUUUCAAUCUUCUCGAAAUUGGCCUCUAAGUCAAUCAUGUCCCGGGGGAAGGGAACCUCUGGGUUUUCACCGGUGUCCAUAAUCGGAAUCAACAGAGGAUUGAGCAUCA
B14: chr7:23239867:23239868:+_ENSG00000136243_ENST00000258742|hu_mus|FALSE|FALSE (ssRNA)
RNA: GGGAGUUCUACAGUCCGACGAUCUCCAAAUACUGAAGUGCUUCCGGAAGGAGGAGUGGCAAGUCCAGGGCUUGUUUUAAAACUAAAGUUCUGAACAGUACUGCUGCUGCUGUUAUUCACUGGGAAGCCUGGUGACCCAAACGACAACAGAGGAUUGAGCAUCA

This assay has as its target T1, UNK ZnF1-3. Briefly: nsRBNS (natural sequence RNA bind-n-seq); RBNS binding buffer (assumed for nsRBNS): 25 mM Tris pH 7.5, 150 mM KCl, 3 mM MgCl2, 0.01% Triton X-100, 500 ug/ml BSA, 20 U/ml SUPERase-In, 4 C; UNK is unkempt and MSI1 is Musashi-1; names of the RNAs are library labels; protein concentration not given here; high values mean tight binding.
Take B1: the binding signal was found to be 1.27 enrichment R. The figure for B2 is 0.755 enrichment R; for B3 it is 0.546 enrichment R. The figure for B4 is 1.21 enrichment R; for B5 it is 0.809 enrichment R; for B6 it is 1.02 enrichment R.

Molecule B7 came in with a binding signal of 0.529 enrichment R. The figure for B8 is 0.49 enrichment R. To B9 belongs 1.37 enrichment R. The figure for B10 is 1.22 enrichment R. With B11, the binding signal was found to be 0.771 enrichment R. Molecule B12 gave a binding signal of 0.972 enrichment R.

B13 gave a binding signal of 0.572 enrichment R. On to B14, for which the binding signal amounted to 1.35 enrichment R.
